Results reported in publication PMC4336329 (PLoS ONE, 2015).
Among all 310,000 compounds or so, about 2,200 (0.71%) showed an effect of 50% or more. Effects have a minus sign here. Some of the results follow.

These compounds were tested against human ether-à-go-go-related gene (hERG) potassium channel (human, UniProt Q12809) (assay: primary screen, population patch clamp on CHO cells stably expressing hERG).
Protocol: Briefly, Chinese hamster ovary (CHO) cells stably expressing the hERG channel were dislodged from tissue culture flasks and dispensed into PPC plates. […] During the recording, background leak currents were estimated by a 100 ms step to -80 mV from an initial holding potential of -70 mV and subtracted from the subsequent current measurement. The campaign was conducted in two phases using slight differences in recording protocol. In the first phase, the initial voltage pulse used a 100 ms step to -30 mV from a holding potential of -70 mV, a 2 s conditioning step to +25 mV, and a 2 s test step to -30 mV. During the second phase of the screen, the potential during the conditioning step was raised to +45 mV. In both phases of the campaign, a secondary voltage pulse was applied using the same parameters as the second phase initial pulse. The initial and secondary pulses were applied in the absence of compound, and upon application of 1 μM and 10 μM test concentrations. Small molecule effects on hERG current density were quantified by […].

Chain of human ether-à-go-go-related gene (hERG) potassium channel (Q12809 whole entry, looked up): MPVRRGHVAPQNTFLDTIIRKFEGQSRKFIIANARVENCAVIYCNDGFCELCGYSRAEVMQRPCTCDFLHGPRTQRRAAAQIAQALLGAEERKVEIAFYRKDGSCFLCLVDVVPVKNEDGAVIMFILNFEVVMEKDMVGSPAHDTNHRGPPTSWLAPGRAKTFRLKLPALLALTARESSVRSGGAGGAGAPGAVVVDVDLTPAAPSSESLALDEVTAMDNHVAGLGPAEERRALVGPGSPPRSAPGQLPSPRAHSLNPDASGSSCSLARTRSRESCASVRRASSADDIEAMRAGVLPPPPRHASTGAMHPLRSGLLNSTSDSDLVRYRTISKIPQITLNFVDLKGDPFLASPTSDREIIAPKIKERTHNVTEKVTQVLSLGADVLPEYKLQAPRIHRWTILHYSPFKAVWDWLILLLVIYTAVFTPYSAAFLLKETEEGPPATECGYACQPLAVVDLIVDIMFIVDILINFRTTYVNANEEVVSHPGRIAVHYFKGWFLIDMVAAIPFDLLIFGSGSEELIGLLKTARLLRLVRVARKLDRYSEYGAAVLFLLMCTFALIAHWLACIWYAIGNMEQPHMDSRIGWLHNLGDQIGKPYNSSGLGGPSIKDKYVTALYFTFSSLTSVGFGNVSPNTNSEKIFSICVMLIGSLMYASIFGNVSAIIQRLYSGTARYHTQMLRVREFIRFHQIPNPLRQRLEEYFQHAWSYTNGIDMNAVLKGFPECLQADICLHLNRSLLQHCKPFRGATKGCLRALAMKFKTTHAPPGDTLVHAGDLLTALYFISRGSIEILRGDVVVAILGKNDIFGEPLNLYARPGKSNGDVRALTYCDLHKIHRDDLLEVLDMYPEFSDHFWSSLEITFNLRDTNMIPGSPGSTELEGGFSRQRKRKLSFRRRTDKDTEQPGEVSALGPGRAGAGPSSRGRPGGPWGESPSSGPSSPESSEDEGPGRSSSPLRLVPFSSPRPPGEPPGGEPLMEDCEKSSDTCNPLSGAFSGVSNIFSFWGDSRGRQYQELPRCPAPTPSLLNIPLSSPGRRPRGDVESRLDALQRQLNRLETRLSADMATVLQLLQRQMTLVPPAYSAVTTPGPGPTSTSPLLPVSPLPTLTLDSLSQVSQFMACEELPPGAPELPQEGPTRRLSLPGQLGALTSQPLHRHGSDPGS

SMILES | hERG current change (%, negative = inhibition) at 1uM
COc1cccc(C(N)=O)c1 | 13%
COc1ccccc1OCC(=O)Nc1ccc(S(=O)(=O)Nc2cc(C)on2)cc1 | 16.8%
CCc1ccc(C(=O)NNC(=O)c2ccc3c(=O)n4c(nc3c2)CCC4)cc1 | 9.72%
Cc1cnc(C(=O)Nc2ccccc2F)cn1 | 19.9%
CCCc1nc(NCCO)c(C#N)c2c1CCCC2 | 7.23%
CC(C)CCn1c(=O)c2ccccc2n2c(CN3CCOCC3)nnc12 | 3.76%
O=C(Cn1cnc2ccccc2c1=O)N/N=C/c1ccc(Br)cc1 | 9.21%
O=C(N/N=C/C1CCCCC1)c1ccccn1 | 11%
COC(=O)c1ccccc1S(=O)(=O)N(Cc1ccco1)Cc1cc2cc(OC)ccc2[nH]c1=O | -9.26%
COc1ccc(C=O)cc1OC(=O)N1CCOCC1 | 4.17%
O=C(c1ccccc1Oc1nnnn1-c1ccccc1)N1CCOCC1 | 9.38%
c1ccc(Nc2nc(N3CCCC3)nc(N3CCCC3)n2)cc1 | 12%
CCCCNc1nc2c(c(=O)n(C)c(=O)n2C)n1Cc1cccc(OC)c1 | -3.67%
COc1ccc2[nH]c3nc(SCC(=O)Nc4cccc(NC(C)=O)c4)nnc3c2c1 | 11.5%
COC(=O)c1c(C)oc2ccc(OC(=O)c3cccs3)cc12 | 6.09%
Cn1c(C(=O)NCCc2c[nH]c3ccccc23)cc2sccc21 | 7.58%
COc1cccc(NC(=O)C(=O)NCCc2ccc(F)cc2)c1 | 6.19%
O=C(CN1C(=O)NC2(CCCCCC2)C1=O)c1ccc2c(c1)OCCO2 | 3.38%
CN1C(=O)C(C)(C)c2cc(S(=O)(=O)NCC3CCC(C(=O)NC4CCCCC4)CC3)ccc21 (stereo not shown) | 13.9%
O=C(CCc1nnc2ccc(NCc3ccco3)nn12)N1CCCCC1 | 15.4%
O=C(NCc1ccco1)C1(c2ccc(Cl)cc2)CCCC1 | 6.19%
Cc1cc(NC(=O)C(C)SCC(=O)N(C)Cc2ccccc2F)no1 (stereo not shown) | 15.8%

SMILES | hERG current change (%, negative = inhibition) at 1uM
O=C(O)C1=C[C@@H](c2ccc(C(F)(F)F)cc2)C[C@@H](OCCCCO)O1 | 14.2%
Clc1ccc(N2CCN(c3cnc4ccccc4n3)CC2)cc1 | 16.2%
CCNc1nc(NCC)n2c(SCC(=O)NC34CC5CC(CC(C5)C3)C4)nnc2n1 | 5.57%
FC(F)(F)c1nc2ccccc2c2nc3ccccc3n12 | 13.3%
COc1ccc(C(=O)C2CCCN(Cc3cccn3-c3nccs3)C2)cc1OC (stereo not shown) | -90.2%
Cc1c(C(=O)N2CCC3(CC2)OCCO3)oc2ccc(S(=O)(=O)N3CCOCC3)cc12 | 15.8%
O=C(CCCc1c[nH]c2ccccc12)N[C@@H](Cc1c[nH]c2ccccc12)C(=O)O | 13.9%
C[C@H]1CN=C(N(C)C)N1CC1CCCC1 | 8.48%
COC(=O)N1C(c2ccccc2)C1c1ccccc1 (stereo not shown) | 15.9%
CC(C)CC(NC(=O)C1CCC(C)CC1)C(=O)NCc1ccccn1 (stereo not shown) | 16.8%
COc1ccc(-c2[nH]ncc2-c2ccc(Cl)cc2)c(O)c1 | 7.01%
CCOc1ccc(-n2ccc(=O)c(C(=O)Nc3ccc(S(=O)(=O)Nc4ncccn4)cc3)n2)cc1 | 13.8%
COc1ccc(OC)c(C2C(C(N)=O)=C(C)Nc3nc(-c4cccc(Cl)c4)nn32)c1 (stereo not shown) | 7.07%
CCCc1nccn1S(=O)(=O)c1cc(OC)ccc1OC | -2.82%
O=S(=O)([N-]c1nc2ccccc2nc1-[n+]1ccccc1)c1ccc(Cl)cc1 | -2.84%
CCn1cc(C(=O)OCC(=O)Nc2c(C)n(C)n(-c3ccccc3)c2=O)c(=O)c2ccc(C)nc21 | -2.92%
O=C(Nc1cccc([N+](=O)[O-])c1)c1ccc(CN2CCOCC2)cc1 | 10.2%
Cc1ccc(S(=O)(=O)Nc2nc(C)c(C(=O)Nc3ccccc3)s2)cc1 | 6.74%
COC(=O)C1CCCN1C(C(=O)NC1CCCCC1)c1ccc(Cl)cc1 (stereo not shown) | 7.3%
CCOc1ccc(NC(=O)CSc2nnc(Cn3c(=O)sc4ccccc43)n2C)cc1 | 2.72%
CCOC(=O)CCNC(=O)N1CCCC(N(C)CCc2ccccc2)C1 (stereo not shown) | -17.5%
